# Results from publication PMC4336329 (PLoS ONE, 2015).
# Among all 310,000 compounds or so, about 14,000 (4.5%) showed an effect of 50% or more. Effects have a minus sign here. Some of the results follow.
# Target: human ether-à-go-go-related gene (hERG) potassium channel (human, UniProt Q12809)
# Experiment: primary screen, population patch clamp on CHO cells stably expressing hERG
# 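Note: peak tail current of the secondary pulse compared with the same well before compound.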
# Chain of human ether-à-go-go-related gene (hERG) potassium channel (Q12809 whole entry, looked up): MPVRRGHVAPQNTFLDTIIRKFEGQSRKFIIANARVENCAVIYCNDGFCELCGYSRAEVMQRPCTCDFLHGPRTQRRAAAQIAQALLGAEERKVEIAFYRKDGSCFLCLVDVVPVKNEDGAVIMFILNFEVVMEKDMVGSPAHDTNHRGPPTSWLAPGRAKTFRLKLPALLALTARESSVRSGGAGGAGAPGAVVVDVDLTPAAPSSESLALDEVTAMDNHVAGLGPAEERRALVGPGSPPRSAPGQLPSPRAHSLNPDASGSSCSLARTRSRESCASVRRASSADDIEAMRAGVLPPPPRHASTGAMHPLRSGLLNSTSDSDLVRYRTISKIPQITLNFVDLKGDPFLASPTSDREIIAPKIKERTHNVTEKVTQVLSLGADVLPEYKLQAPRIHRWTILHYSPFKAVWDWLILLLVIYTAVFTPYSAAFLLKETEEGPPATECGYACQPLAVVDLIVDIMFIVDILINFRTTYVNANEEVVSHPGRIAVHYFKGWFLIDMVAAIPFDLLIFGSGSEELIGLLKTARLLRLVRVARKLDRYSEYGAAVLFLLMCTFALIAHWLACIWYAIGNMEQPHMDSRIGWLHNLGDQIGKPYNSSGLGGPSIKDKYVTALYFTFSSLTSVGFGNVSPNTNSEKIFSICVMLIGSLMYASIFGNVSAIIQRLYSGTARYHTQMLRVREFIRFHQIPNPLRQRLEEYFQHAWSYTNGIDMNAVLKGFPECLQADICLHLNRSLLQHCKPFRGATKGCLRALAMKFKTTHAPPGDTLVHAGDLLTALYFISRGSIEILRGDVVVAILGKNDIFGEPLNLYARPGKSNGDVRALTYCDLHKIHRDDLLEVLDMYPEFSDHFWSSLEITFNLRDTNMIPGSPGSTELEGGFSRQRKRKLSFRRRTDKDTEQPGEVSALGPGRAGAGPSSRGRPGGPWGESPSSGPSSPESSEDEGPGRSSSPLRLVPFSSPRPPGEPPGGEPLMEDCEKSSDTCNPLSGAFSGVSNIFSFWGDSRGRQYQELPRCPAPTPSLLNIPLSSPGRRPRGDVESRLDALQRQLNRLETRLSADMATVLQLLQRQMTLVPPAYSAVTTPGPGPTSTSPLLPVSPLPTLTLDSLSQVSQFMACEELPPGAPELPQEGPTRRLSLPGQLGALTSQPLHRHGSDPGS
row,SMILES,"hERG current change (%, negative = inhibition) at 10uM [%]"
1,Cc1cccc(C(=O)NNC(=O)c2ccccc2-n2cccc2)c1,11.7
2,O=c1c2c(-c3cccs3)csc2ncn1-n1cccc1,-2.65
3,CCOc1cc(C=C(C#N)C#N)ccc1Oc1ccc([N+](=O)[O-])cn1,16.1
4,CCOC(=O)C1CCCN(CCC(=O)Nc2c(C(=O)OC)[nH]c3cc(OC)ccc23)C1 (stereo not drawn),-59.6
5,COc1ccc(CCNC(=O)c2cc3ccccc3oc2=O)cc1,34.1
6,O=C(Nc1nc(-c2ccccc2)cs1)C1CCCCN1S(=O)(=O)c1ccc(Cl)cc1 (stereo not drawn),16
7,COc1cc(/C=N/n2cnnc2)ccc1OCc1ccc(C)cc1,-2.99
8,CSc1nc2cc(Cl)ccc2s1,9.34
9,Nc1c(-c2nn[nH]n2)cnn1-c1cc(Cl)cc(Cl)c1,7.84
10,COc1cc(C2C(C#N)=C(SC)NC3=C2C(=O)CCC3)ccc1O (stereo not drawn),10.9
11,O=C(c1c(Cl)nc2sccn12)N(C(=O)c1c(Cl)nc2sccn12)c1ccc(Cl)cn1,-19.8
12,O=C(COC(=O)C12CC3CC(CC(O)(C3)C1)C2)Nc1ccc(Cl)cc1F,-0.0996
13,CCc1ccc(NC(=O)COn2nnc3ccc(S(=O)(=O)N(C)C)cc32)cc1,-29.1
14,CCOc1ccc(C(=S)N2CCOCC2)cc1OCC,-6.45
15,COc1cccc(C(=O)NCCNC(=O)c2ccc(C)nc2)c1,18.1
16,O=S(=O)(c1cccc(-c2n[nH]c(=S)n2C2CCCC2)c1)N1CCOCC1,15.8
17,COC(=O)Cc1[nH]n(-c2nc3ccccc3s2)c(=O)c1C(C)=Nc1ccc(Cl)cc1,-45.9
18,CCOC(=O)c1ccc(N2C(=O)CC(N3CCC(C#N)(c4ccccc4)CC3)C2=O)cc1 (stereo not drawn),11.1
19,Cc1nc(N2CCOCC2)c2c3c(sc2n1)CCC3,10.4
20,O=C1NC2(CCCCCC2)C(=O)N1Cc1ccc(Br)cc1,4.06
21,COc1ccccc1CC(NC(C)=O)C(=O)NC1CCN(C(=O)c2ccc([N+](=O)[O-])cc2)CC1 (stereo not drawn),-25.4

row,SMILES,"hERG current change (%, negative = inhibition) at 10uM [%]"
1,O=C(N/N=C/c1ccccn1)c1cc(C2CC2)nc2ccccc12,4.26
2,Cc1ccc(CN2CCN(CC(=O)N=Nc3c(O)[nH]c4ccccc34)CC2)cc1,-73.5
3,Cc1cc(Nc2cccc(F)c2)nc(NCc2ccccc2)n1,0.72
4,COC(=O)c1cc(S(=O)(=O)NCc2cccs2)c[nH]1,19.1
5,CC(=O)NNC(=S)NC(=O)c1ccccc1,22.4
6,CC(C)(C)c1ccc(C(=O)OCCNC(=O)c2c(Cl)nc3ccccn23)cc1,-9.89
7,CCN(Cc1ccccc1)C(=O)CN1C(=O)COc2ccc(S(=O)(=O)N3CCCCCC3)cc21,-8.9
8,O=C(CN(C(=O)CSc1nc2ccccc2o1)c1cccc(F)c1)NC1CCCCC1,-2.34
9,Cn1c(CN2CCCCC2)nc2cc(NS(=O)(=O)c3ccc(Cl)cc3)ccc21,-62.5
10,CCOc1ccc(N2CCc3c(C)nc(SC)nc32)cc1,-2.26
11,COc1cc2cc(CN(CCO)S(=O)(=O)c3ccccc3)c(=O)[nH]c2cc1OC,-7.73
12,CCc1nn(CC(=O)NCCCN(Cc2ccccc2)C(C)C)c(=O)c2cc3sccc3n12,-43.8
13,CN(C)c1nc(OCc2ccccc2)c2ncc(=O)[nH]c2n1,8.17
14,O=C(/C=C/c1ccc(F)cc1)Nc1cccc(S(=O)(=O)Nc2cccc(C(F)(F)F)c2)c1,21.2
15,CCCOc1ccc(C(F)(F)F)cc1NC(=O)CCc1c(C)noc1C,-24.3
16,CCN(CC(=O)Nc1ccc(OC)c(OC)c1)CC(=O)Nc1ccccc1C(F)(F)F,-0.147
17,CCOc1ccc2[nH]c(=O)c(CN(Cc3ccco3)C(=O)c3cccc(F)c3)cc2c1,9.04
18,CCCc1nc(SCc2cccnc2)c2c(=O)n(C)c(=O)n(C)c2n1,-57.3
19,CCCCC(=O)OCC(=O)c1cc(C)n(-c2c(C)n(C)n(-c3ccccc3)c2=O)c1C,16.1
20,COc1ccc(-c2cc(C(F)(F)F)c(C#N)c(=O)[nH]2)cc1,18.8
21,Cc1ccc2c(c1)[C@H]1[C@H](CO2)[C@H](c2ccccc2)[C@]2(C)C(=O)N(Cc3ccc(Cl)cc3)CC(=O)N12,-3
